First the molecules themselves.
T1: COX17-FLAG (human) (UniProt Q14061)
T1 sequence: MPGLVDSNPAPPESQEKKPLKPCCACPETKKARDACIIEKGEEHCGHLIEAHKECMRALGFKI

T2: SCO2-FLAG (human) (UniProt O43819)
T2 sequence: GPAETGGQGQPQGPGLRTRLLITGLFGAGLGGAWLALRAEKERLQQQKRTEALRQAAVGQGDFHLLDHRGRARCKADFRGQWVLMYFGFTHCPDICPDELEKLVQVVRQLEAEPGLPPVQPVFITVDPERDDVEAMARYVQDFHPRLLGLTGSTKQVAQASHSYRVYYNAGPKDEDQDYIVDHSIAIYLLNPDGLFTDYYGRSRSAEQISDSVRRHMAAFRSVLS

T3: PET191(C30A, C41A)-FLAG (human) (UniProt Q86WW8)
T3 sequence: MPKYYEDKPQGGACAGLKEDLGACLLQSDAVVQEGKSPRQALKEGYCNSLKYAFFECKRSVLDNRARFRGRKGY

T4: COX11 C219D-FLAG (human) (UniProt Q9Y6N1)
T4 sequence: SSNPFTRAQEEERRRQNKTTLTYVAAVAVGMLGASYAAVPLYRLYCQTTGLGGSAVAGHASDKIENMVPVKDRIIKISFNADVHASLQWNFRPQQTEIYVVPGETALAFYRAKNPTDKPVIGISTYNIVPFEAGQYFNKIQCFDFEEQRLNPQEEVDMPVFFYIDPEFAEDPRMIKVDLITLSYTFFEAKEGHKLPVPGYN

T5: PET191-FLAG (human) (UniProt Q86WW8)
T5 sequence: T3 sequence with A30C, A41C

T6: SCO1-FLAG (human) (UniProt O75880)
T6 sequence: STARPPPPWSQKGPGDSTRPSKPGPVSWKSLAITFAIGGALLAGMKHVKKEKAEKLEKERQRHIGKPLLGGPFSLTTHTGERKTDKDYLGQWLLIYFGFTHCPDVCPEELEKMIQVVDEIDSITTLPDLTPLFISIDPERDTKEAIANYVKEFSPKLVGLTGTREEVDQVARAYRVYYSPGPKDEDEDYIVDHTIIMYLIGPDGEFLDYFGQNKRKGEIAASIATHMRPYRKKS

T7: COX16-FLAG (human) (UniProt Q9P0S2)
T7 sequence: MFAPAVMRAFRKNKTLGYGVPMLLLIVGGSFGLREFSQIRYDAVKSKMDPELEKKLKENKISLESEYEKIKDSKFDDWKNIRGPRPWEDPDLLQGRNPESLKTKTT

T8: COX11-FLAG (human) (UniProt Q9Y6N1)
T8 sequence: T4 sequence with D144C

T9: COA6-FLAG (human) (UniProt Q5JTJ3)
T9 sequence: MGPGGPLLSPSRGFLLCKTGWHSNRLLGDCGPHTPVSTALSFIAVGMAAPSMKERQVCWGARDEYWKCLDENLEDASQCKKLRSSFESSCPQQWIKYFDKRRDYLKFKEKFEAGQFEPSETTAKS

B1: SCO1 (endogenous) (protein, UniProt O75880 68-301)
chain: T6 sequence
B2: SCO2 (endogenous) (protein, UniProt O43819 42-266)
chain: T2 sequence
B3: COA6 (endogenous) (protein, UniProt Q5JTJ3 1-125)
chain: T9 sequence
B4: COX17 (endogenous) (protein, UniProt Q14061 1-63)
chain: T1 sequence
B5: COX19 (endogenous) (protein, UniProt Q49B96 1-90)
chain: MSTAMNFGTKSFQPRPPDKGSFPLDHLGECKSFKEKFMKCLHNNNFENALCRKESKEYLECRMERKLMLQEPLEKLGFGDLTSGKSEAKK
B6: PET191 (endogenous) (protein, UniProt Q86WW8 1-74)
chain: T3 sequence with A30C, A41C
B7: COA3 (protein, UniProt Q9Y2R0 1-106)
chain: MASSGAGDPLDSKRGEAPFAQRIDPTREKLTPEQLHSMRQAELAQWQKVLPRRRTRNIVTGLGIGALVLAIYGYTFYSISQERFLDELEDEAKAARARALARASGS
B8: COX16 (endogenous) (protein, UniProt Q9P0S2 1-106)
chain: T7 sequence

Positions count from the first letter of the chain named. These are yes or no findings as the source states them, for the method shown. In cells and extracts the contact can be indirect. Some entries that bind do so weakly or less than the wild type. Where a sequence is shown, tags or fusion partners need not be part of it.

This passage reports binding results from publication PMC9232578.

The target of the first test is T1, COX17-FLAG (human). Briefly: cross-linking + co-IP; transient interactions: mitochondria treated with 1 mM DSP 1.5 h at 4 C (DMSO as vehicle control), quenched with 10 mM Tris-HCl, extracted in PBS, 0.4% DDM, anti-FLAG beads, immunoblotting for 13 candidate proteins; also in KO backgrounds and after chloramphenicol treatment.
For B1, the binding result is “binds”.
Regarding B2, the binding entry is on record as “binds”.

The target in the next test is T2, SCO2-FLAG (human). Described as above.
With B3, the binding result is “binds”.
Still for that read-out and setting: in the case of B1 it was “binds”; in that of B4, “binds”; in that of B5, “binds”.
On the same count and under the same terms, in the case of B6 it was “binds”.
The same measure, in the same setting: in the case of B7 it was “binds”; in that of B8, “binds”.

The next test addresses T3, PET191(C30A, C41A)-FLAG (human). The description is as above.
As for B1, the binding result is recorded as “binds”.
On the same count and under the same terms, in the case of B5 it was “binds”; in that of B7, “binds”; in that of B2, “binds”.
On the same count and under the same terms, in the case of B8 it was “binds”.

The next test deals with T4, COX11 C219D-FLAG (human). The description is as above.
As for B3, the binding entry is reported as “binds”.
The same measure, in the same setting: in the case of B1 it was “binds”.
B4: the binding entry is reported as “binds”.
Still for that read-out and setting: in the case of B6 it was “binds”; in that of B7, “binds”; in that of B2, “binds”.
On the same count and under the same terms, in the case of B8 it was “binds”.

The target in a further test is T5, PET191-FLAG (human). The test is described as above.
For the molecule B1, the binding result was “binds”.
With B5, the binding entry is recorded as “binds”.
Still for that read-out and setting: in the case of B7 it was “binds”; in that of B2, “binds”.
In the case of B8, the binding result is listed as “binds”.

For the next test, the target named is T6, SCO1-FLAG (human). The test is described as above.
On to B4, for which the binding entry is “binds”.
Same read-out and setting: in the case of B5 it was “binds”; in that of B6, “binds”; in that of B7, “binds”.
Turning to B2, the binding entry was “binds”.
The same measure, in the same setting: in the case of B8 it was “binds”.

For a further test, the target named is T7, COX16-FLAG (human). Described as above.
Consider B3, for which the binding entry is recorded as “binds”.
As to B1, the binding result is given as “binds”.
On the same count and under the same terms, in the case of B4 it was “binds”; in that of B5, “binds”; in that of B6, “binds”.
The same measure, in the same setting: in the case of B7 it was “binds”.
Turning to B2, the binding entry is on record as “binds”.

A further test addresses T8, COX11-FLAG (human). Described as above.
Regarding B3, the binding entry is recorded as “binds”.
Still for that read-out and setting: in the case of B1 it was “binds”; in that of B5, “binds”.
With B6, the binding entry is “binds”.
The same measure, in the same setting: in the case of B7 it was “binds”; in that of B2, “binds”.
On to B8, for which the binding entry is listed as “binds”.

For another test, the target named is T5, PET191-FLAG (human). Briefly: co-IP; as a6 (no crosslinker), PET191-FLAG expressed in COX11-KO cells.
With B1, the binding result is listed as “no binding (condition: in COX11-KO cells)”.
Take B2: the binding entry was “no binding (condition: in COX11-KO cells)”.

A further test concerns the target T1, COX17-FLAG (human). The test is described as follows: co-IP; stable interactions: mitochondria without crosslinker (DMSO vehicle), extracted in PBS, 0.4% DDM, anti-FLAG beads 4 h at 4 C, five washes in PBS 0.05% DDM, immunoblotting; for COX11-COX19 also after pre-incubation of mitochondria with 5 mM GSH.
With B1, the binding entry is reported as “binds”.
Still for that read-out and setting: in the case of B2 it was “binds”.

A further test concerns the target T9, COA6-FLAG (human). The test is described as above.
On to B2, for which the binding entry is reported as “binds”.
Still for that read-out and setting: in the case of B8 it was “binds”.

The target in a further test is T5, PET191-FLAG (human). The test is described as above.
On to B1, for which the binding entry was “binds”.
As to B2, the binding result is “binds”.
Same read-out and setting: in the case of B8 it was “binds”.

The target in another test is T8, COX11-FLAG (human). The description is as above.
On to B1, for which the binding result was “binds”.
The same measure, in the same setting: in the case of B5 it was “binds”; in that of B2, “binds”.
